Source: DBAASP

Columns and labels:
Test in all cases: ≥ marks a high value that may be exact or a test limit, other limits are often not marked
[1] = system: Pseudomonas aeruginosa ATCC 9027
[2] = system: Bacillus subtilis ATCC 9372
[3] = system: Staphylococcus aureus ATCC 6538
[4] = system: Escherichia coli ATCC 8739
[5] = system: Proteus vulgaris NCTC 4635
[6] = system: Escherichia coli ATCC 25922
[7] = system: Staphylococcus aureus NCTC 8325
[8] = system: Proteus mirabilis ATCC 25933
[9] = system: Pseudomonas aeruginosa ATCC 27853
[10] = system: Klebsiella pneumoniae KK3 9904
[11] = system: Enterobacter cloacae HNTCC 53001
[12] = system: Candida albicans
[13] = system: Escherichia coli
[14] = system: Staphylococcus aureus
[15] = system: Candida albicans ATCC 90028
[16] = system: Enterococcus faecalis ATCC 29212
[17] = system: Staphylococcus epidermidis RP62A
[18] = system: Proteus vulgaris NBRC 3045
[19] = system: Staphylococcus aureus KCTC 1621
[20] = system: Bacillus subtilis KCTC 1918
[21] = system: Trichosporon beigelii KCTC 7251
[22] = system: Aspergillus flavus KCTC 7375
[23] = system: Escherichia coli KCTC 1682
[24] = system: Candida albicans KCTC 7121
[25] = system: Proteus vulgaris
[26] = system: Pseudomonas aeruginosa KCTC 1637
[27] = system: Fusarium oxysporum KCTC 6084
[28] = system: Bacillus megaterium KCTC 1096
[29] = system: Pseudomonas aeruginosa
[30] = system: Salmonella enterica subsp. enterica serovar Typhi
[31] = system: Staphylococcus aureus ATCC 25923
[32] = system: Enterobacter cloacae
[33] = system: Bacillus subtilis
[34] = system: Bacillus subtilis var. niger ATCC 9372
[35] = system: Escherichia coli K91BK
[36] = system: Burkholderia thailandensis

MIC [18]: ≥ 100 µM
SMILES: CC(C)C[C@H](NC(=O)CNC(=O)CNC(=O)CNC(=O)[C@H](CCCCN)NC(=O)[C@H](CCCCN)NC(=O)[C@H](CCCCN)NC(=O)[C@H](CCCCN)NC(=O)[C@H](CCCCN)NC(=O)[C@H](CCCCN)NC(=O)[C@H](CCCCN)NC(=O)[C@H](CCCCN)NC(=O)[C@@H](N)CCCCN)C(=O)N[C@@H](CC(C)C)C(=O)N[C@@H](C)C(=O)N[C@@H](CC(C)C)C(=O)N[C@@H](CC(C)C)C(=O)N[C@@H](C)C(=O)N[C@@H](CC(C)C)C(=O)N[C@@H](CC(C)C)C(=O)N[C@@H](C)C(N)=O [KKKKKKKKKGGGLLALLALLA]

MIC [19]: 3.12 µM (≈ 6.73 µg/mL)
MIC [20]: 1.56 µM (≈ 3.36 µg/mL)
MIC [21]: 25 µM (≈ 53.8 µg/mL)
MIC [22]: 25 µM (≈ 53.8 µg/mL)
MIC [23]: 6.25 µM (≈ 13.5 µg/mL)
MIC [24]: 25 µM (≈ 53.8 µg/mL)
MIC [25]: 1.56 µM (≈ 3.36 µg/mL)
MIC [26]: 6.25 µM (≈ 13.5 µg/mL)
MIC [27]: 25 µM (≈ 53.8 µg/mL)
MIC [28]: 1.56 µM (≈ 3.36 µg/mL)
SMILES: CC[C@H](C)[C@H](NC(=O)[C@H](CCCCN)NC(=O)[C@H](CCCCN)NC(=O)[C@H](Cc1ccccc1)NC(=O)[C@H](CC(C)C)NC(=O)[C@H](CCCCN)NC(=O)[C@H](Cc1c[nH]c2ccccc12)NC(=O)[C@@H](N)CCCCN)C(=O)N1CCC[C@H]1C(=O)N[C@@H](CCCCN)C(=O)N[C@@H](Cc1ccccc1)C(=O)N[C@@H](CC(C)C)C(=O)N[C@@H](Cc1cnc[nH]1)C(=O)N[C@@H](CC(C)C)C(=O)N[C@@H](C)C(=O)N[C@@H](CCCCN)C(=O)N[C@@H](CCCCN)C(N)=O [KWKLFKKIPKFLHLAKK]

MIC [19]: 6.25 µM (≈ 10.7 µg/mL)
MIC [20]: 1.56 µM (≈ 2.67 µg/mL)
MIC [21]: ≥ 100 µM
MIC [22]: ≥ 200 µM
MIC [23]: 6.25 µM (≈ 10.7 µg/mL)
MIC [24]: ≥ 100 µM
MIC [25]: 3.12 µM (≈ 5.35 µg/mL)
MIC [26]: 8.84 µM (≈ 15.1 µg/mL)
MIC [27]: ≥ 200 µM
MIC [28]: 3.12 µM (≈ 5.35 µg/mL)
SMILES: CC[C@H](C)[C@H](NC(=O)[C@H](CCCCN)NC(=O)[C@H](CCCCN)NC(=O)[C@H](Cc1ccccc1)NC(=O)[C@H](CC(C)C)NC(=O)[C@H](CCCCN)NC(=O)[C@H](Cc1c[nH]c2ccccc12)NC(=O)[C@@H](N)CCCCN)C(=O)N1CCC[C@H]1C(=O)N[C@@H](CCCCN)C(=O)N[C@@H](Cc1ccccc1)C(=O)N[C@@H](CC(C)C)C(=O)N[C@@H](Cc1cnc[nH]1)C(N)=O [KWKLFKKIPKFLH]

MIC [6]: 32.8 µM (≈ 64 µg/mL)
MIC [29]: 4.1 µM (≈ 8 µg/mL)
MIC [30]: 4.1 µM (≈ 8 µg/mL)
MIC [31]: 1.02 µM (≈ 2 µg/mL)
MIC [9]: 65.5 µM (≈ 128 µg/mL)
MIC [32]: ≥ 131 µM
MIC [33]: ≥ 32.8 µM
MIC [13]: 16.4 µM (≈ 32 µg/mL)
MIC [14]: 65.5 µM (≈ 128 µg/mL)
MIC [15]: ≥ 32.8 µM
SMILES: CC(C)C[C@H](NC(=O)[C@H](CCCCN)NC(=O)[C@H](CCCN=C(N)N)NC(=O)[C@H](Cc1ccccc1)NC(=O)[C@H](Cc1ccccc1)NC(=O)[C@H](CCCCN)NC(=O)[C@H](CCCCN)NC(=O)[C@H](Cc1ccccc1)NC(=O)[C@H](CCCN=C(N)N)NC(=O)[C@H](CCCCN)NC(=O)[C@@H](NC(=O)[C@@H](N)CC(C)C)C(C)C)C(=O)N[C@@H](CCCCN)C(=O)N[C@@H](CCCCN)C(=O)N[C@@H](CO)C(N)=O [LVKRFKKFFRKLKKS]

MIC [6]: 13.9 µM (≈ 32 µg/mL)
MIC [29]: 6.93 µM (≈ 16 µg/mL)
MIC [30]: 1.73 µM (≈ 4 µg/mL)
MIC [31]: 1.73 µM (≈ 4 µg/mL)
MIC [9]: 27.7 µM (≈ 64 µg/mL)
MIC [32]: 13.9 µM (≈ 32 µg/mL)
MIC [33]: 27.7 µM (≈ 64 µg/mL)
MIC [13]: 27.7 µM (≈ 64 µg/mL)
MIC [14]: 55.4 µM (≈ 128 µg/mL)
MIC [15]: 27.7 µM (≈ 64 µg/mL)
SMILES: CC(C)C[C@H](NC(=O)[C@H](CCCCN)NC(=O)[C@H](CCCCN)NC(=O)[C@@H](NC(=O)[C@H](CO)NC(=O)[C@H](CCCCN)NC(=O)[C@H](CCCCN)NC(=O)[C@H](CC(C)C)NC(=O)[C@H](CCCCN)NC(=O)[C@H](CCCN=C(N)N)NC(=O)[C@H](Cc1ccccc1)NC(=O)[C@H](Cc1ccccc1)NC(=O)[C@H](CCCCN)NC(=O)[C@H](CCCCN)NC(=O)[C@H](Cc1ccccc1)NC(=O)[C@H](CCCN=C(N)N)NC(=O)[C@H](CCCCN)NC(=O)[C@@H](N)C(C)C)C(C)C)C(N)=O [VKRFKKFFRKLKKSVKKL]

Second part, the molecule before the results:

SMILES: CC[C@H](C)[C@H](NC(=O)[C@@H](NC(=O)[C@H](CO)NC(=O)[C@H](C)NC(=O)[C@@H](NC(=O)[C@H](CCCCN)NC(=O)[C@H](CCCCN)NC(=O)[C@@H](NC(=O)[C@@H](NC(=O)[C@H](C)NC(=O)[C@H](Cc1ccccc1)NC(=O)[C@H](CC(C)C)NC(=O)CN)C(C)C)[C@@H](C)CC)C(C)C)C(C)C)C(=O)O [GLFAVIKKVASVI]
MIC [1]: 47.6 µM (≈ 64 µg/mL)
MIC [2]: 11.9 µM (≈ 16 µg/mL)
MIC [3]: 11.9 µM (≈ 16 µg/mL)
MIC [4]: 11.9 µM (≈ 16 µg/mL)
MIC [5]: ≥ 190 µM

SMILES: CC[C@H](C)[C@H](NC(=O)[C@@H](NC(=O)[C@H](CC(=O)O)NC(=O)[C@H](Cc1ccccc1)NC(=O)[C@H](CC(C)C)NC(=O)CN)C(C)C)C(=O)N[C@@H](CCCCN)C(=O)N[C@@H](CCCCN)C(=O)N[C@H](C(=O)O)C(C)C [GLFDVIKKV]
MIC [1]: 1010 µM (≈ 1020 µg/mL)
MIC [2]: ≥ 1010 µM
MIC [3]: > 1010 µM
MIC [4]: ≥ 1010 µM
MIC [5]: ≥ 1010 µM

SMILES: CC[C@H](C)[C@H](NC(=O)CNC(=O)[C@H](CCC(N)=O)NC(=O)[C@H](Cc1ccccc1)NC(=O)[C@@H](NC(=O)[C@H](CCCCN)NC(=O)[C@H](CCCCN)NC(=O)[C@H](CC(C)C)NC(=O)[C@H](C)NC(=O)[C@H](CC(N)=O)NC(=O)[C@H](CC(C)C)NC(=O)CN)C(C)C)C(=O)N[C@@H](Cc1c[nH]cn1)C(=O)N[C@@H](CCC(=O)O)C(=O)N[C@@H](C)C(=O)N[C@H](C(=O)N[C@@H](CCCCN)C(=O)N[C@@H](CC(C)C)C(=O)N[C@H](C(=O)N[C@@H](CC(N)=O)C(=O)N[C@@H](CC(N)=O)C(=O)N[C@@H](Cc1c[nH]cn1)C(=O)N[C@H](C(=O)N[C@@H](CCC(N)=O)C(=O)O)C(C)C)[C@@H](C)CC)[C@@H](C)CC [GLNALKKVFQGIHEAIKLINNHVQ]
MIC [6]: 20 µM (≈ 53.7 µg/mL)
MIC [7]: ≥ 80 µM
MIC [8]: ≥ 80 µM
MIC [9]: 80 µM (≈ 215 µg/mL)
MIC [10]: ≥ 40 µM
MIC [11]: ≥ 80 µM
MIC [12]: 130 µM (≈ 349 µg/mL)
MIC [13]: 2.5 µM (≈ 6.71 µg/mL)
MIC [14]: 80 µM (≈ 215 µg/mL)
MIC [15]: ≥ 80 µM
MIC [16]: > 80 µM
MIC [17]: ≥ 80 µM

SMILES: CC[C@H](C)[C@H](NC(=O)[C@H](CCCCN)NC(=O)[C@H](CCCN=C(N)N)NC(=O)CNC(=O)[C@H](CC(C)C)NC(=O)[C@H](CCCN=C(N)N)NC(=O)[C@H](CCCN=C(N)N)NC(=O)[C@H](CC(C)C)NC(=O)CNC(=O)[C@H](CCCN=C(N)N)NC(C)=O)C(=O)N[C@@H](C)C(=O)N[C@@H](Cc1cnc[nH]1)C(=O)NCC(=O)N[C@H](C(=O)N[C@@H](CCCCN)C(=O)N[C@@H](CCCCN)C(=O)N[C@@H](Cc1ccc(O)cc1)C(=O)NCC(=O)N1CCC[C@H]1C(=O)N[C@H](C(=O)N[C@H](C(=O)N[C@@H](CCCCN)C(=O)N[C@@H](CCCN=C(N)N)C(=O)N[C@H](C(=O)N[C@@H](CCCCN)C(=O)N[C@@H](CCCN=C(N)N)C(=O)N[C@@H](CCCCN)C(=O)N[C@@H](C)C(N)=O)[C@@H](C)CC)C(C)C)[C@@H](C)O)C(C)C [RGLRRLGRKIAHGVKKYGPTVKRIKRKA]
MIC [34]: 12.5 µM (≈ 41.1 µg/mL)
MIC [35]: ≥ 100 µM
MIC [36]: ≥ 100 µM

Values after ≈ are worked out from the molar mass of the structure shown. One block for each molecule: values may come before it.
